Source: the supplement of paper PMC11417369
± gives the standard deviation of the averaged measurements. This is one part of the list.

Test system: PfAP2-I AP2 domain 3 (GST-tagged)
Assay: gcPBM binding intensity (ln(normalized median fluorescence intensity)); higher = stronger DNA binding
How it was run: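 An Agilent 4 × 180k array of primer-extended double-stranded 36-bp intergenic genomic probes, with negative controls, was incubated for 1 h with GST-tagged P. falciparum DNA-binding domains expressed in E. coli. Alexa488 anti-GST antibody detected bound protein, scanned at 488 nm. Binding intensity is the highest Masliner-normalised natural-log median intensity across replicate spots of either probe orientation.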

Point of comparison: “ATAATCCTTAAACACACACACACACTAATAAATAAA [CACACA_site8052]”, “gcPBM binding intensity (ln)” value 8.02 ± 0.42. Against it:
- AAAATGTGCTTTTCAGTGCAATTTTTTTTGTAATAA [GTGCAC_site9566] — higher, 9.04 ± 0.32
- TATTCTATAAATATATTTTTTTAATTTTTTATTTTA [CACACA_negctrl_site307] — within error, 7.58 ± 0.28
- AAAAAAAAAAAAAAAGGTACAGTAAAAAATTCCTCT [XGTACX_site5947] — within error, 8.62 ± 0.5
- AAATTTAATTTTATATCACACATTAAATTTTAATGG [CACACA_site4251] — within error, 7.65 ± 0.58
- ATAACATAACATAATACACACATATAAAAAAGAAAT [CACACA_site3028] — within error, 8.2 ± 0.58
- ATATAATATATTTTCACACATATTTTATGATGATAA [CACACA_site5614] — within error, 7.62 ± 0.32
- TAATATATTGTAGATGCATGCATTAACTATTACAAA [TGCATGCA_site190] — within error, 8.04 ± 0.52
- CGTATAAATAAATACACACACATATAAATATGTAAA [CACACA_site6236] — within error, 7.59 ± 0.29
- TATCAATGGAAAATATATATTTGTATATATGTAATA [XGTACX_negctrl_site257] — within error, 7.64 ± 0.7
- GAAATTATTATATAAACACACATTTATTTTATTTTA [CACACA_site1957] — within error, 7.58 ± 0.56
- GTATTATACCATAATGCATGTTAACTTCAAAAGAAA [TGCATGCA_site839] — within error, 8.04 ± 0.42
- ATAAAAATTAAAGAATGTACACATATAATATATGTA [XGTACX_site8735] — within error, 7.64 ± 0.26
- AAAAGTTATAGACACACACACATATAAATATAGATT [CACACA_site6617] — within error, 7.67 ± 0.64
- TTGTTTCCTTAATATTCACACACATATATATAATAT [CACACA_site8553] — within error, 8.05 ± 0.71
- TATAAATGTATACAAGTGCATATTATTCACACATAA — higher, 9.6 ± 0.13
- TTTTAAAAAAATAAATAAATAGAAAAAAAAAATAAA [TGCATGCA_negctrl_site579] — within error, 7.54 ± 0.38
- GGATATATTTTATGTACACACATATATAACGGATAT [CACACA_site4847] — within error, 8.05 ± 0.35
- TATTATGACTTAAGTTGTACTGTTGAAAGAAGAAAA [XGTACX_site2985] — within error, 7.88 ± 0.53
- AGCAACCCCCTAGCTACACACATATAGATATATATA [CACACA_site951] — within error, 8.75 ± 0.45
- TAAAATTTTTTTGTTTGTACATATATATATATAATA [XGTACX_site5609] — within error, 7.88 ± 0.5
- TATATATTATACACGTGTACACATTATAACAATATA [XGTACX_site7799] — within error, 8.35 ± 0.45
- TTTCCCTTAAATTAATGTACATAAATTGAAAATACC [XGTACX_site1602] — within error, 8.07 ± 0.45
- TTGCCCCAGGAGTTCACACACATAATAGATTGTCAC [CACACA_site726] — within error, 7.79 ± 0.61
- AAAAAAATAAATAAATACATACATATATATATGTAT [GTGCAC_negctrl_site510] — within error, 7.33 ± 0.51
